The list shows a part of the results. The full chains were built here from the parent and the listed change. Inactive controls read about 0.05.
B1: TEV protease; numbered along this chain (parent)
chain: MGESLFKGPRDYNPISSSICHLTNESDGHTTSLYGIGFGPFIITNKHLFRRNNGTLVVQSLHGVFKVKDTTTLQQHLVDGRDMIIIRMPKDFPPFPQKLKFREPQREERICLVTTNFQTKSMSSMVSDTSCTFPSGDGIFWKHWIQTKDGQCGSPLVSTRDGFIVGIHSASNFTNTNNYFTSVPKNFMELLTNQEAQQWVSGWRLNADSVLWGGHKVFMVKPEEPFQPVKEATQL

Variants of: B1
Assay: raw area under fraction-flipped curve 0-4 h after induction (AUC4h, not background-subtracted), DNA-recorder readout of cleavage of the substrate (dimensionless); higher = more cleavage of the substrate by the protease variant
Conditions: temperature: 34 °C; time window: 0-4 h after rhamnose induction
Procedure: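 In vivo DNA recorder in E. coli TOP10(DE3) ΔrhaA at 34 °C. Each TEVp single-site mutant (parent TEVp 0) is paired with a single-site variant of the 7-mer TEVs (canonical ENLYFQ|S). The substrate sits between flexible linkers in a Bxb1-sfGFP-TEVs-SsrA fusion, so cleavage stabilises Bxb1 and speeds flipping of a recombination array, read by NGS. The value is the raw area under the fraction-flipped curve over 0-4 h after rhamnose induction (AUC4h), with ≥20 reads per time point. It is not background-subtracted; inactive controls average about 0.047.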
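Further: Bxb1 expression induced with 0.2% (w/v) L-rhamnose at OD600 near 0.5, cultures sampled hourly, flipped fraction per protease–substrate barcode pair counted by paired-end Illumina sequencing.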

| Variant | area with substrate CNLYFQS | area with substrate FNLYFQS | area with substrate HNLYFQS | area with substrate MNLYFQS | area with substrate SNLYFQS | area with substrate TNLYFQS | area with substrate YNLYFQS | area with substrate GNLYFQS | area with substrate LNLYFQS | area with substrate NNLYFQS | area with substrate PNLYFQS | area with substrate QNLYFQS | area with substrate VNLYFQS | area with substrate WNLYFQS | area with substrate INLYFQS | area with substrate KNLYFQS |
| --- | --- | --- | --- | --- | --- | --- | --- | --- | --- | --- | --- | --- | --- | --- | --- | --- |
| MGESLFKGPRDYNPISSSICHLTNESDGHTTSLYGIGFGPFIITNKHLFRRNNGTLVVQSLHGVFKVKDTTTLQQHLVDGRDMIIICMPKDFPPFPQKLKFREPQREERICLVTTNFQTKSMSSMVSDTSCTFPSGDGIFWKHWIQTKDGQCGSPLVSTRDGFIVGIHSASNFTNTNNYFTSVPKNFMELLTNQEAQQWVSGWRLNADSVLWGGHKVFMVKPEEPFQPVKEATQL [R87C] | 0.0668 | 0.0612 | 0.0692 | 0.0624 | 0.0639 | 0.0631 | 0.0702 | – | – | – | – | – | – | – | – | – |
| MGESLFKGPRDYNPISSSICHLTNESDGHTTSLYGIGFGPFIITNKHLFRRNNGTLVVQSLHGVFKVKDTTTLQQHLVDGRDMIIIFMPKDFPPFPQKLKFREPQREERICLVTTNFQTKSMSSMVSDTSCTFPSGDGIFWKHWIQTKDGQCGSPLVSTRDGFIVGIHSASNFTNTNNYFTSVPKNFMELLTNQEAQQWVSGWRLNADSVLWGGHKVFMVKPEEPFQPVKEATQL [R87F] | 0.0618 | 0.061 | 0.0756 | – | 0.0615 | 0.0623 | 0.0594 | 0.0648 | 0.0719 | 0.0607 | 0.0672 | 0.0604 | 0.0595 | 0.0664 | – | – |
| MGESLFKGPRDYNPISSSICHLTNESDGHTTSLYGIGFGPFIITNKHLFRRNNGTLVVQSLHGVFKVKDTTTLQQHLVDGRDMIIIIMPKDFPPFPQKLKFREPQREERICLVTTNFQTKSMSSMVSDTSCTFPSGDGIFWKHWIQTKDGQCGSPLVSTRDGFIVGIHSASNFTNTNNYFTSVPKNFMELLTNQEAQQWVSGWRLNADSVLWGGHKVFMVKPEEPFQPVKEATQL [R87I] | 0.0549 | 0.0618 | 0.06 | – | 0.0617 | 0.0604 | 0.0651 | 0.0658 | 0.0667 | 0.0643 | 0.0625 | – | 0.0642 | 0.0553 | – | – |
| MGESLFKGPRDYNPISSSICHLTNESDGHTTSLYGIGFGPFIITNKHLFRRNNGTLVVQSLHGVFKVKDTTTLQQHLVDGRDMIIISMPKDFPPFPQKLKFREPQREERICLVTTNFQTKSMSSMVSDTSCTFPSGDGIFWKHWIQTKDGQCGSPLVSTRDGFIVGIHSASNFTNTNNYFTSVPKNFMELLTNQEAQQWVSGWRLNADSVLWGGHKVFMVKPEEPFQPVKEATQL [R87S] | 0.0509 | 0.0539 | 0.0563 | 0.0638 | – | 0.0752 | – | 0.0705 | 0.0563 | 0.0527 | – | 0.0873 | 0.07 | 0.0585 | 0.0705 | – |
| MGESLFKGPRDYNPISSSICHLTNESDGHTTSLYGIGFGPFIITNKHLFRRNNGTLVVQSLHGVFKVKDTTTLQQHLVDGRDMIIIYMPKDFPPFPQKLKFREPQREERICLVTTNFQTKSMSSMVSDTSCTFPSGDGIFWKHWIQTKDGQCGSPLVSTRDGFIVGIHSASNFTNTNNYFTSVPKNFMELLTNQEAQQWVSGWRLNADSVLWGGHKVFMVKPEEPFQPVKEATQL [R87Y] | 0.0864 | 0.0661 | 0.0611 | – | 0.0997 | 0.0786 | – | – | – | – | – | – | – | 0.0736 | – | – |
| MGESLFKGPRDYNPISSSICHLTNESDGHTTSLYGIGFGPFIITNKHLFRRNNGTLVVQSLHGVFKVKDTTTLQQHLVDGRDMIIIRMMKDFPPFPQKLKFREPQREERICLVTTNFQTKSMSSMVSDTSCTFPSGDGIFWKHWIQTKDGQCGSPLVSTRDGFIVGIHSASNFTNTNNYFTSVPKNFMELLTNQEAQQWVSGWRLNADSVLWGGHKVFMVKPEEPFQPVKEATQL [P89M] | 0.0583 | 0.0403 | 0.0694 | – | – | 0.0542 | 0.0472 | – | 0.0845 | 0.0451 | 0.0573 | – | 0.0358 | 0.047 | 0.0509 | 0.0662 |
| MGESLFKGPRDYNPISSSICHLTNESDGHTTSLYGIGFGPFIITNKHLFRRNNGTLVVQSLHGVFKVKDTTTLQQHLVDGRDMIIIRMQKDFPPFPQKLKFREPQREERICLVTTNFQTKSMSSMVSDTSCTFPSGDGIFWKHWIQTKDGQCGSPLVSTRDGFIVGIHSASNFTNTNNYFTSVPKNFMELLTNQEAQQWVSGWRLNADSVLWGGHKVFMVKPEEPFQPVKEATQL [P89Q] | 0.0089 | – | 0.063 | – | – | 0.0567 | 0.0547 | 0.0778 | 0.0513 | 0.0692 | 0.0661 | – | – | 0.0531 | – | 0.0715 |
| MGESLFKGPRDYNPISSSICHLTNESDGHTTSLYGIGFGPFIITNKHLFRRNNGTLVVQSLHGVFKVKDTTTLQQHLVDGRDMIIIRMPNDFPPFPQKLKFREPQREERICLVTTNFQTKSMSSMVSDTSCTFPSGDGIFWKHWIQTKDGQCGSPLVSTRDGFIVGIHSASNFTNTNNYFTSVPKNFMELLTNQEAQQWVSGWRLNADSVLWGGHKVFMVKPEEPFQPVKEATQL [K90N] | 0.0595 | 0.0641 | 0.0653 | – | 0.0634 | 0.0703 | 0.0673 | 0.0643 | 0.0642 | 0.0752 | 0.0777 | – | 0.0633 | – | 0.0649 | – |
| MGESLFKGPRDYNPISSSICHLTNESDGHTTSLYGIGFGPFIITNKHLFRRNNGTLVVQSLHGVFKVKDTTTLQQHLVDGRDMIIIRMPPDFPPFPQKLKFREPQREERICLVTTNFQTKSMSSMVSDTSCTFPSGDGIFWKHWIQTKDGQCGSPLVSTRDGFIVGIHSASNFTNTNNYFTSVPKNFMELLTNQEAQQWVSGWRLNADSVLWGGHKVFMVKPEEPFQPVKEATQL [K90P] | 0.0523 | – | 0.0633 | – | 0.0901 | 0.0522 | 0.0728 | – | – | – | 0.0537 | – | – | 0.0842 | 0.062 | 0.0675 |
| MGESLFKGPRDYNPISSSICHLTNESDGHTTSLYGIGFGPFIITNKHLFRRNNGTLVVQSLHGVFKVKDTTTLQQHLVDGRDMIIIRMPRDFPPFPQKLKFREPQREERICLVTTNFQTKSMSSMVSDTSCTFPSGDGIFWKHWIQTKDGQCGSPLVSTRDGFIVGIHSASNFTNTNNYFTSVPKNFMELLTNQEAQQWVSGWRLNADSVLWGGHKVFMVKPEEPFQPVKEATQL [K90R] | 0.0751 | – | 0.0527 | – | – | – | 0.075 | – | – | – | – | 0.0649 | – | – | – | – |

Source: the supplement of paper PMC12217912
